The results in this text go back to paper PMC4336329 (PLoS ONE, 2015).

About 2,200 (0.71%) of roughly 310,000 compounds showed an effect of 50% or more. Effects have a minus sign here. The list shows a part of the results.

For the test, the target named is human ether-à-go-go-related gene (hERG) potassium channel (human, UniProt Q12809). Nature of the test: primary screen, population patch clamp on CHO cells stably expressing hERG.
Sequence of human ether-à-go-go-related gene (hERG) potassium channel (Q12809 whole entry, looked up): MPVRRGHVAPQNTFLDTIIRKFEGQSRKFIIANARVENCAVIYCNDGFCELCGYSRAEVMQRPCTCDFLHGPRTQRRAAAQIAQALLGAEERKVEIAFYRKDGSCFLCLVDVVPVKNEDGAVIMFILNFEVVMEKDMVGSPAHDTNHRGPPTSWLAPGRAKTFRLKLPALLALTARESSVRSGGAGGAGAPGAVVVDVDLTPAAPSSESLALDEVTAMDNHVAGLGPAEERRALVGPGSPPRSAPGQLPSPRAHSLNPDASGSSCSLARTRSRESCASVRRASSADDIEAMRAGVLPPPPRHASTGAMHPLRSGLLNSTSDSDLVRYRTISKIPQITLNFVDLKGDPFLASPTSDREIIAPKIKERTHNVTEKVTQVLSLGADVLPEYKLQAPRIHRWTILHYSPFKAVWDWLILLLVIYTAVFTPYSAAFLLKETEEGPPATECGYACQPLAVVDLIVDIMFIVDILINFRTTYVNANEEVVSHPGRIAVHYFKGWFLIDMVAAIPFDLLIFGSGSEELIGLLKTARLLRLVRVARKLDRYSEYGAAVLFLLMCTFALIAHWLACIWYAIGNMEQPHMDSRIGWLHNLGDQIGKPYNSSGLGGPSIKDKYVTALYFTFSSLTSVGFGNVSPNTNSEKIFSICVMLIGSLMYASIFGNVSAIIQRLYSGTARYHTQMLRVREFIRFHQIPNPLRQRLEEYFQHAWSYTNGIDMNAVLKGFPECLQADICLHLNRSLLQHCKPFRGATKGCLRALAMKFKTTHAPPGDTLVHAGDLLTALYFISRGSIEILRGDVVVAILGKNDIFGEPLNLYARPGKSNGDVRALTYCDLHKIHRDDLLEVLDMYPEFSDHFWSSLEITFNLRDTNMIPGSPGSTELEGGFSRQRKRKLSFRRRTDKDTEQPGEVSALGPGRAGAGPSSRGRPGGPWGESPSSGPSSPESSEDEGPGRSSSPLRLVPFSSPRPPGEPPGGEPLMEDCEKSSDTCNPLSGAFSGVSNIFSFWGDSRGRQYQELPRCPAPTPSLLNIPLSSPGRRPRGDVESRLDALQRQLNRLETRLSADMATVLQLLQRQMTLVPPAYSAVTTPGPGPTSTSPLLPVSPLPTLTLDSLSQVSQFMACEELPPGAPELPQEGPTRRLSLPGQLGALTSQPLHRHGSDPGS
For `COC(=O)C1=C(C(=O)OC)[C@@H]2N(Cc3ccccc3)c3ccccc3[C@@]23C[C@@H](C(=O)OC)N=C3N1`, the “hERG current change (%, negative = inhibition) at 1uM” value is -0.347%.
With `NNC(=S)Nc1ccccc1Cl`, the “hERG current change (%, negative = inhibition) at 1uM” value is -0.0438%.
As for `Nc1nc(NCC2CCCO2)nc(Nc2cccc(F)c2)c1[N+](=O)[O-]` (centres unmarked), the “hERG current change (%, negative = inhibition) at 1uM” value was 0.655%.
The same measure for `Cn1c(C(=O)c2ccncc2)cc2ccccc21`: 5.92%.
Turning to `O=C1CN(C(=O)CSc2nc3c(cnn3-c3ccccc3)c(=O)[nH]2)c2ccccc2N1`, the “hERG current change (%, negative = inhibition) at 1uM” value is 2.98%.
In the case of `O=C(NCc1ccccn1)c1ccc(Cl)s1`, the “hERG current change (%, negative = inhibition) at 1uM” value is given as 6.51%.
Take `Cc1cc(-c2nnc(CCC(=O)NCCc3ccccc3F)o2)no1`: the “hERG current change (%, negative = inhibition) at 1uM” value stood at 2.54%.
Regarding `CCN1C(=O)Nc2cccc3cccc1c23`, the “hERG current change (%, negative = inhibition) at 1uM” value was found to be 10.3%.
For the compound `C[C@]12CCC(=O)C=C1CC[C@@H]1[C@@H]2C(=O)C[C@]2(C)C(=O)CC[C@@H]12`, the “hERG current change (%, negative = inhibition) at 1uM” value is reported as 16.8%.
With `O=C(Nc1cccc(Cl)c1)N(CCCN1CCOCC1)Cc1ccccc1F`, the “hERG current change (%, negative = inhibition) at 1uM” value is -7.59%.
The value for `C=CCOc1c(Cl)cc(CNn2cn[nH]c2=S)cc1OC` was 11.8%; that for `COc1ccc(CCC(=O)NNC(=O)Nc2ccc(C(C)=O)cc2)cc1` was 26.6%.
In the case of `Cc1ccc(C(=O)NCc2ccc3c(c2)OCO3)cc1`, the “hERG current change (%, negative = inhibition) at 1uM” value is on record as 2.49%.
On to `COC(=O)c1[nH]nc(C(=O)OC(C)(C)C)c1-c1ccccc1`, for which the “hERG current change (%, negative = inhibition) at 1uM” value came to 0.154%.
Turning to `S=C(Nc1ccccc1)Nc1ccccc1Br`, the “hERG current change (%, negative = inhibition) at 1uM” value turned out to be 13.9%.
The same measure for `O=C(COC(=O)Cc1cccc(C(F)(F)F)c1)NCC1CCCO1` (centres unmarked): 8.06%; for `O=C(N/N=C1\C(=O)c2cccc3cccc1c23)c1ccc(O)cc1`: 5.11%.
The value for `Cc1cc(NS(=O)(=O)c2ccc(Nc3nc(-c4ccc(C)c(C)c4)cs3)cc2)no1.Cl` was 0.836%; that for `Cc1nc2ccccc2c(=O)n1NC(=O)c1ccc(Cl)c(Cl)c1` was 11.1%; that for `CCn1nc(C)c([N+](=O)[O-])c1C(=O)NNC(=O)c1ccccc1Cl` was 11.5%.
In the case of `COc1ccc(C(=O)c2oc3ccc(OC)cc3c2N)cc1`, the “hERG current change (%, negative = inhibition) at 1uM” value was 10.1%.
The value for `FC(F)(F)C1=CC(c2ccccc2)=NCCN1` was 7.54%; that for `Cc1ccc(C(C)C)c(OCC(=O)OCC(=O)NC2CCS(=O)(=O)C2)c1` (centres unmarked) was 14%.
The same measure for `CC(C)c1ccc(N(CC(=O)NC2CCCC2)C(=O)CCC(=O)Nc2nccs2)cc1`: 15.2%; for `O=C(O)C1CC=CCC1C(=O)NC12CC3CC(CC(C3)C1)C2` (centres unmarked): 10.9%; for `CC(C)(C)NC(=O)CN(C(=O)CS(=O)CC(=O)Nc1ccc(F)cc1)c1ccccc1` (centres unmarked): 16.2%.
The same measure for `CCOC(=O)c1c(C2COc3ccccc3O2)csc1N` (centres unmarked): 1.92%; for `COc1ccc(Cc2nc3ccc(C(=O)N(C)CCCN4CCOCC4)cc3o2)cc1`: 10.8%; for `CC(=O)c1ccc(NC(=O)NC2CC(=O)N(c3ccc4c(c3)OCCO4)C2)cc1` (centres unmarked): 8.58%.
Take `O=C(O)c1ccc(N=N/C(=N\Nc2ccc(C(=O)O)cc2)c2ccccc2)cc1`: the “hERG current change (%, negative = inhibition) at 1uM” value turned out to be 8.1%.
For the compound `Cc1ccc(CNC(=O)C2CCN(S(=O)(=O)c3ccc4c(c3)OCCCO4)CC2)cc1`, the “hERG current change (%, negative = inhibition) at 1uM” value is on record as 6.87%.
The same measure for `CCOc1ccccc1N1CCN(C(=O)c2ccc(-c3ccc(OC(C)=O)cc3)cc2)CC1`: 10.2%; for `CCCCNC(=O)NS(=O)(=O)c1ccc(NC(=O)C(NC(N)=O)C(C)CC)cc1` (centres unmarked): 17.7%; for `O=C(Nc1ccc(NC(=O)c2ccco2)cc1)c1ccc2c(c1)OCCO2`: 4.44%.
The value for `COc1ccc(/C=C/C2=Nc3ccccc3NC(C)(C)C2)cc1OC` was -5.11%.
Take `Cc1c(NC(=O)Nc2cc(F)c(F)cc2Cl)c(=O)n(-c2ccccc2)n1C`: the “hERG current change (%, negative = inhibition) at 1uM” value is on record as 14.2%.
In the case of `COC(=O)c1c(NC(=O)CN2CCN(Cc3ccc4c(c3)OCO4)CC2)sc(C)c1C.O=C(O)C(=O)O`, the “hERG current change (%, negative = inhibition) at 1uM” value is reported as 5.45%.
Consider `CSc1ccccc1OCc1cc(C(=O)N2CCN3CCCC3C2)no1` (centres unmarked), for which the “hERG current change (%, negative = inhibition) at 1uM” value is reported as 6.81%.
The same measure for `COc1ccc(CCc2nnc(CCC(=O)N(C)Cc3ccncc3C)o2)cc1`: 10.2%; for `O=C(CSc1nnnn1-c1ccccc1)Nc1ncc(Cc2cc(Cl)ccc2Cl)s1`: 13.4%.
The same measure for `COc1ccc(/C=N/N=C(\N)c2nonc2N)cc1OC`: 19.4%; for `CCc1nn(CC(=O)Nc2cc(C)ccc2C)c(=N)s1.Cl`: 13.2%; for `Cn1c(SCC(=O)Nc2ccc3c(c2)CCC3)nnc1C1CC1`: 3.3%.
As for `O=C(CCNC(=O)c1ccccc1)NCCc1ccc(Cl)cc1`, the “hERG current change (%, negative = inhibition) at 1uM” value came out at 5.8%.
As to `CCOC(=O)C(C)Sc1nc(=O)n2cccc(C)c2n1` (centres unmarked), the “hERG current change (%, negative = inhibition) at 1uM” value came to 8.98%.
The value for `S=c1[nH]nc(COc2ccccc2)n1/N=C/c1ccc(Cl)cc1` was 11.3%; that for `CCN(CCCNC(=O)CN(C)S(=O)(=O)c1cccc2nsnc12)c1cccc(C)c1` was 5.25%; that for `CC(C)C[C@H](NC(=O)c1[nH]cnc1C(=O)N[C@@H](Cc1ccccc1)C(=O)OCc1ccccc1)C(=O)OCc1ccccc1` was 10.2%.
As for `N/C(=N\OC(=O)COc1ccc2ccccc2c1Br)c1cccnc1`, the “hERG current change (%, negative = inhibition) at 1uM” value is given as 13.1%.
As for `Cc1ccc(S(=O)(=O)N2C(=O)CCC2C(=O)O/N=C(\N)c2ccc([N+](=O)[O-])cc2)cc1` (centres unmarked), the “hERG current change (%, negative = inhibition) at 1uM” value was determined as 31.9%.
As for `COc1ccc(OCC(=O)Nc2ccccc2C(=O)NC(C)C)cc1`, the “hERG current change (%, negative = inhibition) at 1uM” value was 8.66%.
The same measure for `CCOc1cc(NC(=O)C2CC2)c(OCC)cc1NC(=O)c1cccc(F)c1`: 12%; for `O/N=C1/CCCCc2sccc21`: 0.319%; for `Cc1c(Cl)cccc1-n1cnc(=O)c2ccccc21`: 1.24%.
The value for `O=C(NCc1ccc(Cl)cc1)c1ccc(-c2ccccc2C(F)(F)F)o1` was 6.11%.
The value for `CCCc1cc(=O)[nH]c(Nc2ccc3c(c2)OCCO3)n1` was 4.35%; that for `CCOC(=O)c1cc(CC)sc1NC(=O)COc1ccc2c(C)cc(=O)oc2c1` was 11%.
As for `CC(C)OCCCNC(=O)c1c(N)n(Cc2cccs2)c2nc3ccccc3nc12`, the “hERG current change (%, negative = inhibition) at 1uM” value is listed as -9.56%.
The same measure for `O=C(Nc1ccc(S(=O)(=O)NCc2ccccc2)cc1)c1ccccc1[N+](=O)[O-]`: 10.8%.
Regarding `CC(=NCc1cccnc1)c1c(O)n(-c2ccc(Cl)cc2)c(=O)[nH]c1=O`, the “hERG current change (%, negative = inhibition) at 1uM” value is given as 11.9%.
For `CCc1nnc(NC(=O)C(C)Sc2ccccc2)s1` (centres unmarked), the “hERG current change (%, negative = inhibition) at 1uM” value amounted to 0.446%.
For `CCOC(=O)c1cc2c(ccn2-c2ccc(F)cc2)n1CC(=O)N1CCN(C(=O)c2ccco2)CC1`, the “hERG current change (%, negative = inhibition) at 1uM” value turned out to be 3.09%.
The same measure for `C#Cc1ccc(CN2CCC(N3CCC(C(=O)NCc4ccccn4)CC3)CC2)cc1`: -34.8%.
`COc1ccc2c(c1OC)C(=O)N1C2SC[C@H]1C(=O)NC1CCCCC1` (some centres unmarked): the “hERG current change (%, negative = inhibition) at 1uM” value is -7.32%.
Turning to `Cc1ccc(S(=O)(=O)/N=S(\C)CC2CC2(Cl)Cl)cc1` (centres unmarked), the “hERG current change (%, negative = inhibition) at 1uM” value was 21.8%.
The same measure for `O=C(Cc1ccccc1)OCC(=O)c1ccccc1`: -9.12%; for `O=C(OCc1csc(-c2ccccc2)n1)c1ccccc1O`: 25.3%; for `Cc1ccc(NC(=O)c2ccccc2-c2cc(C)no2)cc1`: 3.69%.
The value for `Cc1csc(NC(=O)c2ccoc2C)n1` was -6.24%; that for `COc1ccccc1Cn1c(=S)[nH]c2ccc(F)cc2c1=O` was 17.9%.
The same measure for `Cc1ccc(N2CC(C(=O)Nc3ccccc3C(=O)N3CCOCC3)CC2=O)cc1` (centres unmarked): 17.9%; for `Cc1ccc(CNC(=O)c2ccc(S(=O)(=O)Nc3c(C)n(C)n(-c4ccccc4)c3=O)cc2)cc1`: -3.29%; for `CC(C)(C)c1ccc(S(=O)(=O)N2CCCC2C(=O)NC2=NCCS2)cc1` (centres unmarked): 6.31%.
Take `Cc1nc(NCCc2ccc(S(N)(=O)=O)cc2)c2c3c(sc2n1)CCC3`: the “hERG current change (%, negative = inhibition) at 1uM” value worked out at 11.8%.
The value for `O=C(OCc1cn(-c2ccc(Cl)cc2)nn1)c1ccccc1` was 8.04%; that for `COc1ccc(CCNC(=O)COC(=O)c2ccc[nH]c2=O)cc1` was 4.6%.
In the case of `Cc1[nH]c2ccccc2c1/C=N\NC(=O)c1ccco1`, the “hERG current change (%, negative = inhibition) at 1uM” value was determined as 12.5%.
Turning to `O=C(CN1C(=O)CCC1=O)Nc1nc2c(F)cc(F)cc2s1`, the “hERG current change (%, negative = inhibition) at 1uM” value came to 4.42%.
The value for `CCc1nn(CCCC(=O)Nc2ccc(C)c(C)c2)c(=O)c2cc3occc3n12` was 9.92%.
The value for `CC1(C)C2CCC(C2)C1(C)NC(=O)CNC1CCCCC1.Cl` (centres unmarked) was 20.8%; that for `O=C(NCc1ccco1)c1nnc(Cc2ccc(Cl)cc2)o1` was 7.12%.
As for `Cc1c(Cl)cccc1NC(=O)c1cc(-c2ccccc2O)n[nH]1`, the “hERG current change (%, negative = inhibition) at 1uM” value was -4.4%.
For `O=C1CC(c2ccccc2F)c2c(c3ccccc3[nH]c2=O)O1` (centres unmarked), the “hERG current change (%, negative = inhibition) at 1uM” value came to 19.8%.
With `CCOCCc1nnc(NC(=O)C(C)Oc2ccccc2)s1` (centres unmarked), the “hERG current change (%, negative = inhibition) at 1uM” value is reported as 9.57%.
The value for `O=C(CSc1nnnn1C1CCCC1)NCc1ccccc1` was 1.91%; that for `CCNc1nc(CN2CCOCC2)nc2sc3c(c12)CCC3` was 3.05%; that for `CCOc1ccccc1N1CCN(C(=S)NCc2ccccc2)CC1` was 11%.
As to `C=CCOC(=O)C(C#N)c1nc2ccccc2nc1N1CCCC1` (centres unmarked), the “hERG current change (%, negative = inhibition) at 1uM” value turned out to be 16.4%.
As to `O=C(NNS(=O)(=O)c1ccccc1[N+](=O)[O-])c1ccncc1`, the “hERG current change (%, negative = inhibition) at 1uM” value is 7.49%.
